# Measurements from article PMC12820563, “FoxP3 forms a head-to-head dimer in vivo and stabilizes its multimerization on adjacent microsatellites”.
# The list shows a part of the results.
# Molecular target: T1, MBP-FoxP1dN (Mus musculus, UniProt P58462 326-579)
# T1 sequence: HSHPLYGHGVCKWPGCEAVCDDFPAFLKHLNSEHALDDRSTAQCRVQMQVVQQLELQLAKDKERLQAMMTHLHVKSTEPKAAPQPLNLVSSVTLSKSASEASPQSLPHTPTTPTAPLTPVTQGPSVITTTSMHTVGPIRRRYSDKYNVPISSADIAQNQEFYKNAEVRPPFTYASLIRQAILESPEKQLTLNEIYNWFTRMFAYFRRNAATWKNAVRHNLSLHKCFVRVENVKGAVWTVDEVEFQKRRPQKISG
# Assay: PD-seq (MBP pull-down with sequencing); 20 mM Tris-HCl pH 7.5, 100 mM NaCl, 1.5 mM MgCl2, 0.4 uM protein, 0.1 uM dsDNA library, 30 min, room temperature, amylose pull-down; high values mean tight binding
# Settings: protein: recombinant; tags: His6-MBP; chain copies: 2; dsDNA, one strand shown
# Outline: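 Mouse FoxP3 or FoxP1 fragment lacking the N-terminus, His6-MBP-tagged and expressed in E. coli, was incubated at 0.4 µM with 0.1 µM Klenow-filled degenerate double-stranded DNA library for 30 min at room temperature in Tris pH 7.5 buffer with NaCl and MgCl2. Complexes captured on amylose resin were washed three times and their DNA sequenced on Illumina. Binding is reads-per-million enrichment of pull-down over input, replicates pooled.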
row,Sequence,binding signal
1,GATGATTGTTCTCCCAGCTGATGAATTAGGATCCTCGAGTAAACAAATTTTCCTAATCTTTCTGTTCAAGCGCCATCTAC,0.743 RPM ratio (pull-down/input)
2,GATGATTGTTCTCCCAGCTGATGAATTCGGATGGTCGAGTAAACAAATTTTCCTAATCTTTCTGTTCAAGCGCCATCTAC,0.796 RPM ratio (pull-down/input)
3,GATGATTGTTCTCCCAGCTGATGAATTATCAGGATCGAGTAAACAAATTTTCCTAATCTTTCTGTTCAAGCGCCATCTAC,0.915 RPM ratio (pull-down/input)
4,GATGATTGTTCTCCCAGCTGATGAATTGAAAGCGTCGAGTAAACAAATTTTCCTAATCTTTCTGTTCAAGCGCCATCTAC,0.868 RPM ratio (pull-down/input)
5,GATGATTGTTCTCCCAGCTGATGAATTTAAGCGTTCGAGTAAACAAATTTTCCTAATCTTTCTGTTCAAGCGCCATCTAC,0.966 RPM ratio (pull-down/input)
6,GATGATTGTTCTCCCAGCTGATGAATTTTAGTGGTCGAGTAAACAAATTTTCCTAATCTTTCTGTTCAAGCGCCATCTAC,0.918 RPM ratio (pull-down/input)
7,GATGATTGTTCTCCCAGCTGATGAATTAAAGATGTCGAGTAAACAAATTTTCCTAATCTTTCTGTTCAAGCGCCATCTAC,0.985 RPM ratio (pull-down/input)
8,GATGATTGTTCTCCCAGCTGATGAATTGTGTAGGTCGAGTAAACAAATTTTCCTAATCTTTCTGTTCAAGCGCCATCTAC,1.11 RPM ratio (pull-down/input)
9,GATGATTGTTCTCCCAGCTGATGAATTAACAGACTCGAGTAAACAAATTTTCCTAATCTTTCTGTTCAAGCGCCATCTAC,0.866 RPM ratio (pull-down/input)
10,GATGATTGTTCTCCCAGCTGATGAATTAATGCGATCGAGTAAACAAATTTTCCTAATCTTTCTGTTCAAGCGCCATCTAC,1.29 RPM ratio (pull-down/input)
11,GATGATTGTTCTCCCAGCTGATGAATTATCTGGTTCGAGTAAACAAATTTTCCTAATCTTTCTGTTCAAGCGCCATCTAC,0.96 RPM ratio (pull-down/input)
12,GATGATTGTTCTCCCAGCTGATGAATTCACAGCATCGAGTAAACAAATTTTCCTAATCTTTCTGTTCAAGCGCCATCTAC,0.993 RPM ratio (pull-down/input)
13,GATGATTGTTCTCCCAGCTGATGAATTAAGCACTTCGAGTAAACAAATTTTCCTAATCTTTCTGTTCAAGCGCCATCTAC,0.902 RPM ratio (pull-down/input)
14,GATGATTGTTCTCCCAGCTGATGAATTTTTTCGATCGAGTAAACAAATTTTCCTAATCTTTCTGTTCAAGCGCCATCTAC,1.01 RPM ratio (pull-down/input)
15,GATGATTGTTCTCCCAGCTGATGAATTGAGTACTTCGAGTAAACAAATTTTCCTAATCTTTCTGTTCAAGCGCCATCTAC,0.964 RPM ratio (pull-down/input)
16,GATGATTGTTCTCCCAGCTGATGAATTGTACCTGTCGAGTAAACAAATTTTCCTAATCTTTCTGTTCAAGCGCCATCTAC,0.958 RPM ratio (pull-down/input)
17,GATGATTGTTCTCCCAGCTGATGAATTAACGAGTTCGAGTAAACAAATTTTCCTAATCTTTCTGTTCAAGCGCCATCTAC,0.92 RPM ratio (pull-down/input)
18,GATGATTGTTCTCCCAGCTGATGAATTGGAAGTCTCGAGTAAACAAATTTTCCTAATCTTTCTGTTCAAGCGCCATCTAC,0.83 RPM ratio (pull-down/input)
